# Data reported in the supplement of paper PMC8728848.
# The list shows a part of the results.
# B1: Pwp5 ND (Candida glabrata) (protein)
# chain: MGSSHHHHHHSSGLVPRGSHMASANPVPLTNVCYFPEEYPRQAGFRAITAGLASTILQGSVDELLNYSGLSSLTTQQTTTTTPNFQLPTLPLPTNVYGLTVVPLYLLVQLQGYFVPPVSGQYTFSLENTNDAAIIFFGNPSAFPCGDLSAWPQASADDITVTDGTFPSRTLFLKAGVAYPMRISYYNSLGSGNLAVSFTDPGGTKRTNWNGYIWRYNSCSTCTYT
# Key:
# Test in all cases: glycan array binding signal (z-score within array); higher = stronger binding
# Settings in all cases: glycan notation: IUPAC condensed, linker removed
# [1] = biological target: Fuc(a1-3)GlcNAc
# In short: (§1)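 From the Consortium for Functional Glycomics database, 3228 arrays were curated, keeping only those whose protein sequence was available. Binding is given as a within-array Z-score averaged across arrays sharing a protein sequence and across linkers. Negative Z-scores can be read as non-binding.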
# [2] = biological target: Fuc(a1-3)[Gal(b1-4)]Glc6S
# In short: as §1
# [3] = biological target: Fuc(a1-3)[Gal(b1-4)]GlcNAc
# In short: as §1
# [4] = biological target: Fuc(a1-3)[Gal(b1-4)]GlcNAc(b1-2)Man
# In short: as §1
# [5] = biological target: Fuc(a1-3)[Gal(b1-4)]GlcNAc(b1-2)Man(a1-3)[Fuc(a1-3)[Gal(b1-4)]GlcNAc(b1-2)Man(a1-6)]Man(b1-4)GlcNAc(b1-4)GlcNAc
# In short: as §1
# [6] = biological target: Fuc(a1-3)[Gal(b1-4)]GlcNAc(b1-2)Man(a1-3)[Fuc(a1-3)[Gal(b1-4)]GlcNAc(b1-2)Man(a1-6)]Man(b1-4)GlcNAc(b1-4)[Fuc(a1-6)]GlcNAc
# In short: as §1
# [7] = biological target: Fuc(a1-3)[Gal(b1-4)]GlcNAc(b1-3)Gal(b1-3)[Fuc(a1-4)]GlcNAc
# In short: as §1
# [8] = biological target: Fuc(a1-3)[Gal(b1-4)]GlcNAc(b1-3)Gal(b1-4)[Fuc(a1-3)]GlcNAc
# In short: as §1
# [9] = biological target: Fuc(a1-3)[Gal(b1-4)]GlcNAc(b1-3)Gal(b1-4)[Fuc(a1-3)]GlcNAc(b1-3)Gal(b1-4)[Fuc(a1-3)]GlcNAc
# In short: as §1
# [10] = biological target: Fuc(a1-3)[Gal(b1-4)]GlcNAc(b1-3)GalNAc
# In short: as §1
# [11] = biological target: Fuc(a1-3)[Gal(b1-4)]GlcNAc(b1-6)GalNAc
# In short: as §1
# [12] = biological target: Fuc(a1-3)[Gal(b1-4)]GlcNAc(b1-6)[Gal(b1-3)GlcNAc(b1-3)]Gal(b1-4)Glc
# In short: as §1
# [13] = biological target: Fuc(a1-3)[Gal(b1-4)]GlcNAc6S
# In short: as §1
# [14] = biological target: Fuc(a1-3)[Gal3S(b1-4)]Glc
# In short: as §1
# [15] = biological target: Fuc(a1-3)[Gal3S(b1-4)]GlcNAc
# In short: as §1
# [16] = biological target: Fuc(a1-3)[Gal3S(b1-4)]GlcNAc6S
# In short: as §1
# [17] = biological target: Fuc(a1-3)[GalNAc(b1-4)]GlcNAc
# In short: as §1
# [18] = biological target: Fuc(a1-3)[GalNAc(b1-4)]GlcNAc6S
# In short: as §1
# [19] = biological target: Fuc(a1-4)GlcNAc
# In short: as §1
# [20] = biological target: Fuc(b1-3)GlcNAc
# In short: as §1
# [21] = biological target: Gal(a1-2)Gal
# In short: as §1
# [22] = biological target: Gal(a1-3)Gal
# In short: as §1
# [23] = biological target: Gal(a1-3)Gal(b1-3)GlcNAc
# In short: as §1
# [24] = biological target: Gal(a1-3)Gal(b1-3)GlcNAc(b1-2)Man
# In short: as §1
# [25] = biological target: Gal(a1-3)Gal(b1-3)GlcNAc(b1-2)Man(a1-3)[Gal(a1-3)Gal(b1-3)GlcNAc(b1-2)Man(a1-6)]Man(b1-4)GlcNAc(b1-4)GlcNAc
# In short: as §1
# [26] = biological target: Gal(a1-3)Gal(b1-3)GlcNAc(b1-3)GalNAc
# In short: as §1
# [27] = biological target: Gal(a1-3)Gal(b1-3)GlcNAc(b1-6)GalNAc
# In short: as §1
# [28] = biological target: Gal(a1-3)Gal(b1-3)[Fuc(a1-4)]GlcNAc(b1-2)Man(a1-3)[Gal(a1-3)Gal(b1-3)[Fuc(a1-4)]GlcNAc(b1-2)Man(a1-6)]Man(b1-4)GlcNAc(b1-4)GlcNAc
# In short: as §1
# [29] = biological target: Gal(a1-3)Gal(b1-4)Glc
# In short: as §1
# [30] = biological target: Gal(a1-3)Gal(b1-4)GlcNAc
# In short: as §1
# [31] = biological target: Gal(a1-3)Gal(b1-4)GlcNAc(b1-2)Man
# In short: as §1
# [32] = biological target: Gal(a1-3)Gal(b1-4)GlcNAc(b1-2)Man(a1-3)[Gal(a1-3)Gal(b1-4)GlcNAc(b1-2)Man(a1-6)]Man(b1-4)GlcNAc(b1-4)GlcNAc
# In short: as §1
# [33] = biological target: Gal(a1-3)Gal(b1-4)GlcNAc(b1-3)GalNAc
# In short: as §1
# [34] = biological target: Gal(a1-3)Gal(b1-4)GlcNAc(b1-6)GalNAc
# In short: as §1
# [35] = biological target: Gal(a1-3)Gal(b1-4)[Fuc(a1-3)]GlcNAc
# In short: as §1
# [36] = biological target: Gal(a1-3)Gal(b1-4)[Fuc(a1-3)]GlcNAc(b1-2)Man(a1-3)[Gal(a1-3)Gal(b1-4)[Fuc(a1-3)]GlcNAc(b1-2)Man(a1-6)]Man(b1-4)GlcNAc(b1-4)GlcNAc
# In short: as §1
# [37] = biological target: Gal(a1-3)GalNAc
# In short: as §1
# [38] = biological target: Gal(a1-3)[Gal(a1-4)]Gal(b1-4)GlcNAc
# In short: as §1
# [39] = biological target: Gal(a1-4)Gal(b1-3)GlcNAc(b1-2)Man(a1-3)[Gal(a1-4)Gal(b1-3)GlcNAc(b1-2)Man(a1-6)]Man(b1-4)GlcNAc(b1-4)GlcNAc
# In short: as §1
# [40] = biological target: Gal(a1-4)Gal(b1-4)Glc
# In short: as §1
# [41] = biological target: Gal(a1-4)Gal(b1-4)GlcNAc
# In short: as §1
# [42] = biological target: Gal(a1-4)Gal(b1-4)GlcNAc(b1-2)Man(a1-3)[Gal(a1-4)Gal(b1-4)GlcNAc(b1-2)Man(a1-6)]Man(b1-4)GlcNAc(b1-4)GlcNAc
# In short: as §1
# [43] = biological target: Gal(a1-4)Gal(b1-4)GlcNAc(b1-3)Gal(b1-4)Glc
# In short: as §1
# [44] = biological target: Gal(a1-4)GlcNAc
# In short: as §1
# [45] = biological target: Gal(a1-6)Glc
# In short: as §1
binder,measurement,setting,value
B1,glycan array binding signal (z-score),[1],-0.909
same,glycan array binding signal (z-score),[2],3.45
same,glycan array binding signal (z-score),[3],-0.558
same,glycan array binding signal (z-score),[4],-0.595
same,glycan array binding signal (z-score),[5],1.55
same,glycan array binding signal (z-score),[6],-0.244
same,glycan array binding signal (z-score),[7],0.067
same,glycan array binding signal (z-score),[8],-0.543
same,glycan array binding signal (z-score),[9],-0.258
same,glycan array binding signal (z-score),[10],-0.539
same,glycan array binding signal (z-score),[11],1.73
same,glycan array binding signal (z-score),[12],-0.271
same,glycan array binding signal (z-score),[13],-0.521
same,glycan array binding signal (z-score),[14],-0.316
same,glycan array binding signal (z-score),[15],-0.608
same,glycan array binding signal (z-score),[16],0.214
same,glycan array binding signal (z-score),[17],-0.351
same,glycan array binding signal (z-score),[18],-0.641
same,glycan array binding signal (z-score),[19],-0.606
same,glycan array binding signal (z-score),[20],2.63
same,glycan array binding signal (z-score),[21],-0.54
same,glycan array binding signal (z-score),[22],-0.029
same,glycan array binding signal (z-score),[23],-0.313
same,glycan array binding signal (z-score),[24],-0.505
same,glycan array binding signal (z-score),[25],-0.224
same,glycan array binding signal (z-score),[26],-0.234
same,glycan array binding signal (z-score),[27],-0.579
same,glycan array binding signal (z-score),[28],0.472
same,glycan array binding signal (z-score),[29],-0.561
same,glycan array binding signal (z-score),[30],-0.547
same,glycan array binding signal (z-score),[31],-0.129
same,glycan array binding signal (z-score),[32],0.491
same,glycan array binding signal (z-score),[33],-0.575
same,glycan array binding signal (z-score),[34],-0.36
same,glycan array binding signal (z-score),[35],-0.221
same,glycan array binding signal (z-score),[36],0.326
same,glycan array binding signal (z-score),[37],-0.251
same,glycan array binding signal (z-score),[38],0.526
same,glycan array binding signal (z-score),[39],-0.403
same,glycan array binding signal (z-score),[40],-0.428
same,glycan array binding signal (z-score),[41],-0.334
same,glycan array binding signal (z-score),[42],0.073
same,glycan array binding signal (z-score),[43],0.466
same,glycan array binding signal (z-score),[44],-0.422
same,glycan array binding signal (z-score),[45],-0.324
